This is an account of results in publication PMC4336329 (PLoS ONE, 2015).

About 14,000 (4.5%) of roughly 310,000 compounds showed an effect of 50% or more. Effects have a minus sign here. The list shows a part of the results.
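Also: peak tail current of the secondary pulse compared with the same well before compound.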

This assay deals with human ether-à-go-go-related gene (hERG) potassium channel (human, UniProt Q12809). As to the kind of experiment: primary screen, population patch clamp on CHO cells stably expressing hERG.
Chain of human ether-à-go-go-related gene (hERG) potassium channel (Q12809 whole entry, looked up): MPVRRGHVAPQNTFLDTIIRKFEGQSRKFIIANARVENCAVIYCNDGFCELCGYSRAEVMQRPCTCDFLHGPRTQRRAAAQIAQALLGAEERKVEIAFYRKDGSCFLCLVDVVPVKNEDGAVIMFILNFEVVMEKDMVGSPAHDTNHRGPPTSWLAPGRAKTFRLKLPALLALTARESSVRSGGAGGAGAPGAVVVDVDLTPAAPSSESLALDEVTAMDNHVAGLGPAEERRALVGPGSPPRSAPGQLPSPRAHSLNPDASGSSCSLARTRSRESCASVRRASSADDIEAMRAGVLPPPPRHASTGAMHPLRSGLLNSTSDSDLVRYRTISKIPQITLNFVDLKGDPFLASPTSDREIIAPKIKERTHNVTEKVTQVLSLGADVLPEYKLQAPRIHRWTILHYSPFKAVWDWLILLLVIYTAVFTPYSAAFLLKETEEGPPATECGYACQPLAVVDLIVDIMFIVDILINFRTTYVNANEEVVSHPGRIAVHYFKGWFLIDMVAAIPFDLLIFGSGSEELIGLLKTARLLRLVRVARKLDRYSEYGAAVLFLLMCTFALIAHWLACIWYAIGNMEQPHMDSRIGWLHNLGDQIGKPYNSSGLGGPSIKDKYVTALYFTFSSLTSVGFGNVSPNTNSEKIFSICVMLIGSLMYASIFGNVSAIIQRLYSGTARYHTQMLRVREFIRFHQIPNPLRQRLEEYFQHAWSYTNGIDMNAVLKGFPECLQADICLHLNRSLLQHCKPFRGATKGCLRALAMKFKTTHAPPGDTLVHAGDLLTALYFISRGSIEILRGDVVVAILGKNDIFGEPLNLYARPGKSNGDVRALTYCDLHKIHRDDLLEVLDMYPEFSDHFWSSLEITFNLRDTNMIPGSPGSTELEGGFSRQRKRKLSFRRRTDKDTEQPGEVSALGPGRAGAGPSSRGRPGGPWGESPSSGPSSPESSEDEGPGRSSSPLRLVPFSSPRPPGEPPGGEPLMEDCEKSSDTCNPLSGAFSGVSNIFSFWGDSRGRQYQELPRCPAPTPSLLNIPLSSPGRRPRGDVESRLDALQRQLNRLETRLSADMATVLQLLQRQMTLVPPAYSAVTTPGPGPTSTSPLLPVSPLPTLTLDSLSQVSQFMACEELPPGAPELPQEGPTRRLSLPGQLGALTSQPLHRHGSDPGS
Consider `CCSc1ccccc1C(=O)NCCCn1ccnc1`, for which the “hERG current change (%, negative = inhibition) at 10uM” value was 10.2%. With `CCCN1CCC(NC(=O)C2CCN(C(C)=O)CC2)CC1` the figure was 12.4%; with `CC1CCCC(C)N1C(=O)CNCc1ccc2c(c1)OCO2.O=C(O)C(=O)O` (stereo not shown), 9.88%.

With `CC(C)(C)c1ccc(/C=N/N2C(=O)CSC2=S)cc1`, the “hERG current change (%, negative = inhibition) at 10uM” value was 16.6%. With `N#Cc1c(SCC(=O)N2CCCCC2)nsc1SCC(=O)N1CCCCC1`, the “hERG current change (%, negative = inhibition) at 10uM” value amounted to 16.5%. Consider `CC(C)NC(=O)C(=O)NCC(c1ccc2c(c1)OCO2)N1CCOCC1` (stereo not shown), for which the “hERG current change (%, negative = inhibition) at 10uM” value was 11.8%. The value for `Cc1cc(-c2nnc3n2CCCCC3)c(C)n1-c1ccccc1` was -14.5%. The value for `COc1ccc(S(=O)(=O)N2CCCCCC2)cc1NC(=O)Cc1cc(OC)c(OC)c(OC)c1` was 3.28%; that for `COC(=O)C1=C(C)NC(=O)/C1=C\c1cc(C)n(-c2ccccc2F)c1C` was 12.2%; that for `Cc1ccc(NC2=NCC(=O)N2c2ccc3c(c2)OCCO3)c(C)c1` was 6.92%. With `CCCN(c1ccc(C(C)C)cc1)S(=O)(=O)c1c(C)noc1C` the figure was 23.4%. On to `COc1ccc(CCn2c(O)c(C=NCCCn3ccnc3)c(=O)[nH]c2=O)cc1OC`, for which the “hERG current change (%, negative = inhibition) at 10uM” value is on record as 12.8%. The value for `O=C(NCCCN1CCOCC1)c1cc(-c2ccc(F)cc2)no1` was -13.2%. As for `O=C1N(c2cccc(Cl)c2)C(c2ccc(Cl)cc2)N2CCCN12` (stereo not shown), the “hERG current change (%, negative = inhibition) at 10uM” value is -15.8%. The value for `CSc1ccccc1NC(=O)c1ccoc1C` was -16.9%. The value for `COc1ccc(C2C(C#N)=C(N)OC(C(C)(C)C)=C2C#N)cc1OC` (stereo not shown) was -39.8%. With `S=P(Nn1cnnc1)(c1ccccc1)c1ccccc1` the figure was 12.9%; with `C/C(=C\C(=O)c1ccc(C)o1)Nc1ccc2c(c1)OCO2`, -0.0129%.

Consider `CCOC(=O)Cc1csc(NC(=O)Cn2cnc3c2c(=O)n(C)c(=O)n3C)n1`, for which the “hERG current change (%, negative = inhibition) at 10uM” value is 2.68%. As for `CCNC(=S)N1CC(C)OC(C)C1` (stereo not shown), the “hERG current change (%, negative = inhibition) at 10uM” value turned out to be 8.95%. The value for `Cc1ccc(-c2csc(NC(=O)C3CCN(S(=O)(=O)c4cccs4)CC3)n2)cc1` was 13.4%.

Consider `COc1ccc2cc1Oc1ccc(cc1)C[C@H]1c3cc(c(OC)cc3CCN1C)Oc1c(O)c(OC)cc3c1[C@H](C2)N(C)CC3`, for which the “hERG current change (%, negative = inhibition) at 10uM” value is listed as -47.7%. The value for `Cc1cccc(C)c1NC(=O)NN(C(=O)c1ccccc1)C(C)(C)C` was -9.36%. The value for `CO/N=C/C=C1/N(C)c2ccccc2C1(C)C` was 19.8%; that for `CC(C)C(=O)Nc1nnc(COc2ccc(Cl)cc2)s1` was 8.84%; that for `CC(C)=CCc1c(O)cc(O)c2c1OC(c1ccc(O)cc1)CC2=O` (stereo not shown) was 5.67%. `NC(=O)CCc1c[nH]c2ccccc12`: the “hERG current change (%, negative = inhibition) at 10uM” value was found to be 11.4%.

Regarding `O=C(Nc1ccc(S(=O)(=O)Nc2ncccn2)cc1)c1cnc(Cl)c(Cl)c1`, the “hERG current change (%, negative = inhibition) at 10uM” value worked out at 19.2%. With `NC(=O)NC(CC(=O)NNC(=O)c1ccccn1)c1ccccc1Cl` (stereo not shown) the figure was 3.73%; with `O=C(CCSCc1ccccc1Cl)NCc1ccco1`, 15.8%. Regarding `O=C(CCNC(=O)Cn1ccc2ccccc2c1=O)NCCC1=CCCCC1`, the “hERG current change (%, negative = inhibition) at 10uM” value is recorded as -12.4%. The value for `CN(C)c1ccc(C(CNC(=O)c2ccccc2Br)c2c[nH]c3ccccc23)cc1` (stereo not shown) was -4.71%; that for `CCc1ccc2nc(N(CCCN(C)C)C(=O)c3ccc(S(=O)(=O)N(C)C4CCCCC4)cc3)sc2c1.Cl` was 8.35%; that for `NCCCC[C@@H]1NC(=O)c2cc([N+](=O)[O-])cc(F)c2NCCCC[C@@H](C(N)=O)NC(=O)[C@H](CCC(N)=O)NC1=O` was -1.25%. The value for `CN1CCN(S(=O)(=O)c2ccc(N3CCc4ccccc4C3)nc2)CC1` was 13.8%; that for `COCCCNc1nc2c(-c3cccc(C(F)(F)F)c3)nnn2c2ccccc12` was -1.31%; that for `O=c1/c(=C/c2ccc(O)cc2)sc2nc3cc(Br)cnc3n12` was 13.7%.

Turning to `CCN1C(=O)[C@H]2[C@@H](c3ccccc3)N3C(=O)N(c4cccc(F)c4)C(=O)[C@@]3(CC(C)C)[C@H]2C1=O`, the “hERG current change (%, negative = inhibition) at 10uM” value is 13.5%. With `Cc1ccc(Nc2nc3c(c(=O)[nH]2)CCCC3)cc1`, the “hERG current change (%, negative = inhibition) at 10uM” value is on record as -2.8%. On to `O=C1ON=C(c2ccccc2)/C1=C/c1ccccc1`, for which the “hERG current change (%, negative = inhibition) at 10uM” value was 11.4%. In the case of `O=C(COC(=O)c1ccc(N2CCCC2=O)cc1)NCc1ccco1`, the “hERG current change (%, negative = inhibition) at 10uM” value is recorded as 13.6%. With `CC(=O)Nc1ccc(S(=O)(=O)n2cnc3cc(C)c(C)cc32)cc1` the figure was 1.16%. As for `Cc1nn(Cc2ccc([N+](=O)[O-])cc2)c(=O)n1N(C)c1ncc(C(F)(F)F)cc1Cl`, the “hERG current change (%, negative = inhibition) at 10uM” value is listed as -3.46%.
